# Source: paper PMC4336329 (PLoS ONE, 2015)
# The whole screen tested about 310,000 compounds, of which about 14,000 (4.5%) showed an effect of 50% or more. The effect is printed as a negative number. This is one part of the list.
# Molecular target: human ether-à-go-go-related gene (hERG) potassium channel (human, UniProt Q12809)
# Assay: primary screen, population patch clamp on CHO cells stably expressing hERG
# 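Further: peak tail current of the secondary pulse compared with the same well before compound.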
# Sequence of human ether-à-go-go-related gene (hERG) potassium channel (Q12809 whole entry, looked up): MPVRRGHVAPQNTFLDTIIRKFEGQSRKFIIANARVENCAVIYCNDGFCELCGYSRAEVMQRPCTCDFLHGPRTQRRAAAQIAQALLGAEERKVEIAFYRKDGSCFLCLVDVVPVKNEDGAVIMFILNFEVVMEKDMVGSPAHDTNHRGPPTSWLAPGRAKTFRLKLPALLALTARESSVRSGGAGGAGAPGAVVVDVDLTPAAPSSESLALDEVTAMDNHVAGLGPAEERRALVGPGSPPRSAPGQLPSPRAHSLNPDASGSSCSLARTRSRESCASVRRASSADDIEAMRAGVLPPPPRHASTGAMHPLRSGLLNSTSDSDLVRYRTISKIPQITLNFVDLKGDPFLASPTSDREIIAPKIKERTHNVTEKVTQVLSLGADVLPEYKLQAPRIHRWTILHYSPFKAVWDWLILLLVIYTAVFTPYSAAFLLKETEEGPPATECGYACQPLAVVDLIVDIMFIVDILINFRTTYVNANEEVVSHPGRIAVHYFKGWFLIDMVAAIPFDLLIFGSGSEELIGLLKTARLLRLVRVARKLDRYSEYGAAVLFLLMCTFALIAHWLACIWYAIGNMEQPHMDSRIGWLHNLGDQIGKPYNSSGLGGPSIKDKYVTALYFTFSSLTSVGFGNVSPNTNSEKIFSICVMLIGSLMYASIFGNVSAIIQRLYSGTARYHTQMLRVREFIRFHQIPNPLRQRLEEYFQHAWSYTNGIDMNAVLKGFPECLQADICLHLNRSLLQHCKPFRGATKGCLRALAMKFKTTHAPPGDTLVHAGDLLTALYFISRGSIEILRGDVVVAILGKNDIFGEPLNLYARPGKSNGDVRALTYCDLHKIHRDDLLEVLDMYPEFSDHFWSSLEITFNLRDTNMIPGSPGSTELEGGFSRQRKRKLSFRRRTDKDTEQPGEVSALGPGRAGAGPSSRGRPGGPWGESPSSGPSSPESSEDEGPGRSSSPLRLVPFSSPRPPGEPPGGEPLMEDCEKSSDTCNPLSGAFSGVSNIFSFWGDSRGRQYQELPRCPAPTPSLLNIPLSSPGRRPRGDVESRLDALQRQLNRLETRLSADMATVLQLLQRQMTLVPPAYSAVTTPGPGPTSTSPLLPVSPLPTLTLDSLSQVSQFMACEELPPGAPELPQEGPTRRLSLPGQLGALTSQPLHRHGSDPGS
row,SMILES,"hERG current change (%, negative = inhibition) at 10uM [%]"
1,COc1ccccc1-c1c(C(F)(F)F)oc2cc(OC(=O)c3ccc([N+](=O)[O-])cc3)ccc2c1=O,11.9
2,COc1ccc(C2=NOC(C(=O)Nc3cc(Br)ccc3O)C2)cc1OC (centres unmarked),16.3
3,O=C(NCCc1ccccc1)C(=O)c1c[nH]c2ccccc12,5.34
4,COc1cccc2cc(C(=O)C3=C(O)C(=O)N(CCN(C)C)C3c3ccc(Cl)cc3)oc12 (centres unmarked),4.47
5,Cn1c(C=O)c(-c2ccc3c(c2)OCCO3)c2ccccc21,1.03
6,CCC(=Nc1ccc(N)cc1)C1=C(O)C(C(=O)OC)C(C)(C)CC1=O (centres unmarked),27.9
7,CC(NC(=O)C1CCN(S(=O)(=O)c2cnc[nH]2)CC1)c1ccccc1 (centres unmarked),3.81
8,Cc1cc(NC(=O)CSc2nnc(NC(=O)C3CC(=O)N(c4ccccc4)C3)s2)no1 (centres unmarked),9.58
9,CCC(=O)N1CCc2cc(S(=O)(=O)N3CCCC3)ccc21,15.7
10,COc1ccc(NC(=S)NCC2CCCO2)c(C)c1 (centres unmarked),2.1
11,Cc1ccc(C)c(NC(=O)Cn2nnc(C(=O)Nc3c(C)cccc3C)c2N)c1,-9.97
12,COc1ccc(-n2cnc3sc4c(c3c2=O)CCCC4)cc1,11.2
13,CCOc1ccc(S(=O)(=O)N(C(=O)c2ccco2)c2cc3sc(=O)oc3c3ccccc23)cc1,19.6
14,O=C(Nc1cc(Br)ccc1O)c1cc(-c2cccs2)on1,-29.1
15,Clc1cccc(Cl)c1CSc1nnc(/C=C/c2ccccc2)o1,8.1
16,Cc1ccc(NC(=O)C2CCN(C(=O)N3CCOc4ccccc43)CC2)cc1,-4.24
17,Cc1ccc(CSc2nnc(-c3ccc4c(c3)OCO4)o2)cc1,8.8
18,Cc1ccc([N+](=O)[O-])cc1S(=O)(=O)Nc1cccc(-c2ccc(N3CCCC3)nn2)c1,-12.7
19,Cc1ccc(NC(=O)Nn2cnnc2)c(C)c1,1.62
20,CC(O)CNC(=O)c1ccc(-c2nn(C)c(=O)c3ccccc23)cc1 (centres unmarked),-0.479
21,Cc1cc(C)n(-c2nc3ccccc3nc2Nc2ccc(CC(=O)O)cc2)n1,7.13
22,CCOC(=O)C1=C(C)C(c2ccccc2OC)NC(=O)N1 (centres unmarked),16.9

row,SMILES,"hERG current change (%, negative = inhibition) at 10uM [%]"
1,COc1ccc(NC(=S)Nc2ncccc2C)cc1OC,3.58
2,CCCCNC(=O)Nc1cc(C(=O)OC)ccc1C,7.36
3,Cc1[nH]c2ccccc2c1C(=O)CNc1nccs1,-3.59
4,Cc1ccc(CC(=O)Nc2ccc(F)c([N+](=O)[O-])c2)cc1C,-3.41
5,CCc1c(C)nc(SCC(=O)N2CCCCC2)[nH]c1=O,3.18
6,Cc1ccccc1C(=O)N[C@H](C(=O)OCC(=O)c1ccc[nH]1)C(C)C,-6.68
7,Cc1ccccc1N1C(=O)[C@@H]2Cc3ccccc3CN2C1=O,-4.95
8,CSC1=NC(C)(C)C=C(/C=C/c2ccc(Cl)cc2Cl)N1,18.1
9,CC(Oc1ccc2ccc(=O)oc2c1)C(=O)NCCN1CCOCC1 (centres unmarked),15.8
10,COc1ccc(S(=O)(=O)N2CCC(C(=O)NCC3CCCO3)CC2)cc1Cl (centres unmarked),9.38
11,CC(C)(CO)CNC(=O)c1ccc(OC2CCN(C(=O)C3CC3)CC2)cc1,0.279
12,CCCC(C)NC(=O)COc1ccc(S(=O)(=O)c2ccc(OCC(=O)NC(C)CCC)cc2)cc1 (centres unmarked),3.31
13,CCCNC(=O)C1CC(=O)N(c2ccc(OCc3ccc(F)cc3)cc2)C1 (centres unmarked),8.72
14,CCC(C)NC(=O)N1c2ccccc2Sc2ccccc21 (centres unmarked),-4.45
15,O=C(O)c1ccc2c(c1)C(=O)N(N1C(=O)c3ccccc3C1=O)C2=O,-4.21
16,Cc1ccccc1NC(=O)c1cccc(C(=O)Nc2ccccc2C)c1,0.597
17,CC(C)CCOc1ccc(C(=O)NCC(c2ccco2)N(C)C)cc1 (centres unmarked),17.4
18,O=C(CCC(=O)N1CCOc2ccc(Cl)cc21)N1CCC2(CC1)OCCO2,-2.22
19,CCCCc1ccc(NC(=S)N2CCN(c3ncccn3)CC2)cc1,6.94
20,CC(C)(C)c1cc(C(=O)N/N=C/c2ccco2)n[nH]1,13.5
21,COCc1ccc(CN2CCCC(C(=O)c3sccc3C)C2)o1 (centres unmarked),5.56
22,COc1cc(SC)ccc1C(=O)N1CCN(c2ccccc2)CC1,-17.2
